Each structure is given as a SMILES string. The campaign covered roughly 310,000 compounds. About 2,200 (0.71%) showed an effect of 50% or more. Effects have a minus sign here. Some of the results follow.

The test deals with human ether-à-go-go-related gene (hERG) potassium channel (human, UniProt Q12809). Nature of the test: primary screen, population patch clamp on CHO cells stably expressing hERG.
Sequence of human ether-à-go-go-related gene (hERG) potassium channel (Q12809 whole entry, looked up): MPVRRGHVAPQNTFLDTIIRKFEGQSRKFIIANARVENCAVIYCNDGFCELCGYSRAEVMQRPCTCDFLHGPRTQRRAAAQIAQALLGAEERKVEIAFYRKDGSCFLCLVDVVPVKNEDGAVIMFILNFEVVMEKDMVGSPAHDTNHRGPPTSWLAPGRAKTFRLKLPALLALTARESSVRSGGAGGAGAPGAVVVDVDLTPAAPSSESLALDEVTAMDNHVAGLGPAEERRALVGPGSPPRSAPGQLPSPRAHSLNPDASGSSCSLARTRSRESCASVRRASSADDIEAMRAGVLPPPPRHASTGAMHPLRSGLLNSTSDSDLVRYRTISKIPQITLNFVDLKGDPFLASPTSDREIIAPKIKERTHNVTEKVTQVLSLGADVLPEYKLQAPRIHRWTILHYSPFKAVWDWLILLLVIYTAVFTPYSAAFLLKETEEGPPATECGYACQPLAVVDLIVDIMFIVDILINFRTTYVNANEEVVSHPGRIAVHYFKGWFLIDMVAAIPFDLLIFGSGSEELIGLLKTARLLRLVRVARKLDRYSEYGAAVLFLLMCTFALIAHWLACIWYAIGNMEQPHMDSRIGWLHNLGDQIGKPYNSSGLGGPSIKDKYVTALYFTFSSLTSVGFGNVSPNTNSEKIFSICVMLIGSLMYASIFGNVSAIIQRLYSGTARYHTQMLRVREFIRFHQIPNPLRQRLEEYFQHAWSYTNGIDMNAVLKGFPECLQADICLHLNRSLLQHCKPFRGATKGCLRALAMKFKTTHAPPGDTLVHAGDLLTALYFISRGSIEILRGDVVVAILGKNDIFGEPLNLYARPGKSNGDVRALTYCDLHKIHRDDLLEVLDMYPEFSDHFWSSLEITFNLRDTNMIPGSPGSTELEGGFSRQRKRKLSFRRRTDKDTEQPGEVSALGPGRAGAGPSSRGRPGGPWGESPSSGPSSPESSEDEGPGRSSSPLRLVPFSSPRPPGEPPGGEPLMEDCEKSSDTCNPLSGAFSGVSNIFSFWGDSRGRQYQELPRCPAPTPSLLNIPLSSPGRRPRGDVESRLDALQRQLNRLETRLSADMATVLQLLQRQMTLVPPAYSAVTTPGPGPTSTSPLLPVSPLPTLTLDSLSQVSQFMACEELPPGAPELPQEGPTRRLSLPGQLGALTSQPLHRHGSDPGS
On to `S=c1[nH]cc(-c2ccccc2)[nH]1`, for which the “hERG current change (%, negative = inhibition) at 1uM” value was found to be 12.3%. Take `CC(=O)CSc1nnc(-c2ccco2)n1-c1ccccc1`: the “hERG current change (%, negative = inhibition) at 1uM” value came to 12%. Consider `Cn1cccc1/C=C1/SC(=O)N(CC(=O)N2CCCC2)C1=O`, for which the “hERG current change (%, negative = inhibition) at 1uM” value is 9.51%. `COc1ccc(-c2nc(C#N)c(NCc3ccco3)o2)cc1`: the “hERG current change (%, negative = inhibition) at 1uM” value is 11.8%. On to `COc1cc(C)ccc1OCCOc1cc(C)ccc1Cl`, for which the “hERG current change (%, negative = inhibition) at 1uM” value is 10.6%. Take `Cc1ccccc1NC(=S)NC(NC(=O)N(C)C)C(Cl)(Cl)Cl` (stereo not shown): the “hERG current change (%, negative = inhibition) at 1uM” value was 11.9%. Turning to `CN(C1CCCCC1)S(=O)(=O)c1ccc(C(=O)Nc2sc3c(c2C(N)=O)CC(C)(C)NC3(C)C)cc1`, the “hERG current change (%, negative = inhibition) at 1uM” value came to 10.7%.

As for `CCOc1ccc2nc3c(cc2c1)CN(CCCO)C(=NCCOC)S3`, the “hERG current change (%, negative = inhibition) at 1uM” value is given as 12%. As for `C=CCSc1nc2c(C(=O)OCC)nnn2c2ccccc12`, the “hERG current change (%, negative = inhibition) at 1uM” value turned out to be 8.5%. In the case of `CC(OC(=O)c1cccc(-n2cnnn2)c1)C(=O)NCc1ccccc1` (stereo not shown), the “hERG current change (%, negative = inhibition) at 1uM” value came to 4.25%. In the case of `CCOc1ccc(Oc2ccc(C(F)(F)F)cc2NC(=O)C2=COCCO2)cc1`, the “hERG current change (%, negative = inhibition) at 1uM” value is recorded as 9.87%. On to `COCCNC(=O)Cc1c(C)c2cc3c(cc2oc1=O)OC(C)(C)CC3`, for which the “hERG current change (%, negative = inhibition) at 1uM” value is on record as 11%. For `CCCc1nnc(NC(=O)c2ccc(N3C(=O)C4C5C=CC(C5)C4C3=O)cc2)s1` (stereo not shown), the “hERG current change (%, negative = inhibition) at 1uM” value stood at 10.3%. The figure for `CCc1ccc(NC(=O)Cn2nnc(C(=O)NCCc3ccc(OC)c(OC)c3)c2N)cc1` is 9.58%; for `Cc1occc1C(=O)N(C)CC1CCCN(CCc2ccccc2F)C1` (stereo not shown) it is -11.3%; for `COc1ccccc1N1CCN(C(=O)c2ccc(CS(=O)(=O)c3ccccc3OC)o2)CC1` it is 4.7%. The figure for `C/C(=N/O)c1no[n+]([O-])c1/C(C)=N\O` is 4.36%; for `O=C(CS(=O)(=O)c1cn(CC(=O)N2CCCC2)c2ccccc12)Nc1ccccc1` it is 8.7%; for `O=C(NCc1ccccn1)c1n[nH]c2ccccc12` it is 18.3%.

Take `O=C(NCc1ccccc1)C12CN(Cc3ccccc3)CC1C(c1ccc([N+](=O)[O-])cc1)=NO2` (stereo not shown): the “hERG current change (%, negative = inhibition) at 1uM” value is -31.7%. The figure for `COc1cccc(NC(=O)CN2C(=O)CSc3ccc(S(=O)(=O)N4CCC(C)CC4)cc32)c1` is 13%; for `CCOC(=O)c1ccc(NC(=O)Cn2nc(C)c3ccccc3c2=O)cc1` it is 17.3%. Regarding `COc1cc(SC)ccc1C(=O)N1CCN(Cc2ccccc2)CC1`, the “hERG current change (%, negative = inhibition) at 1uM” value was -29.2%. Consider `COc1cc(NC(=O)CCC(=O)OCCCC(F)(F)C(F)(F)F)nc(OC)n1`, for which the “hERG current change (%, negative = inhibition) at 1uM” value was 10.8%. Turning to `COc1cc(Br)cc(CN2CCN(C)CC2)c1O`, the “hERG current change (%, negative = inhibition) at 1uM” value is 1.77%. For the compound `O=C(Nc1nc(-c2ccccc2)cs1)c1ccccc1NS(=O)(=O)c1ccc(F)cc1`, the “hERG current change (%, negative = inhibition) at 1uM” value turned out to be 14.4%. Then `CSc1cccc(NS(=O)(=O)c2ccc(C(C)=O)cc2)c1`, with -7%. The figure for `COc1ccc(CC(=O)Nc2nnc(C(C)(C)C)s2)cc1OC` is 5.69%; for `CCN(C(=O)CN1C(=S)NC(C)(C)CC1C)c1ccc(C)c(C)c1` (stereo not shown) it is 9.5%; for `COC(=O)c1ccc(Cn2cnc3ccccc3c2=O)cc1` it is -15.5%.

Take `Cc1c(NC(=O)CSc2ncccn2)c(=O)n(-c2ccccc2)n1C`: the “hERG current change (%, negative = inhibition) at 1uM” value was 15%.

`COc1cccc(CCNCc2cccc(C(F)(F)F)c2)c1.O=C(O)C(=O)O`: the “hERG current change (%, negative = inhibition) at 1uM” value amounted to 14.4%.

Turning to `Cc1nn(CC(=O)NCc2cccc(F)c2)c(=O)c2cccn12`, the “hERG current change (%, negative = inhibition) at 1uM” value turned out to be 21.2%. For the compound `O=C(Nc1nc(-c2ccccn2)cs1)C1CC(=O)N(c2ccc3c(c2)OCCO3)C1` (stereo not shown), the “hERG current change (%, negative = inhibition) at 1uM” value is 3.21%. As for `COc1ccc(COc2ccc(C3C(S(=O)(=O)c4ccccc4)CON3C)cc2OC)cc1` (stereo not shown), the “hERG current change (%, negative = inhibition) at 1uM” value is reported as 3.29%.

As for `CCOc1cccc(=O)c2c(C)n(C)c(C)c12`, the “hERG current change (%, negative = inhibition) at 1uM” value was -0.735%. Regarding `COc1cccc(NC(=O)N2CCCCCC2)c1`, the “hERG current change (%, negative = inhibition) at 1uM” value turned out to be 10.9%. Consider `CN(C)S(=O)(=O)c1ccc(NS(=O)(=O)/C=C/c2ccccc2)cc1`, for which the “hERG current change (%, negative = inhibition) at 1uM” value is reported as -5.11%. In the case of `O=C/C(=C\Nc1ccc(Cl)cn1)c1nc2cc(Cl)ccc2o1`, the “hERG current change (%, negative = inhibition) at 1uM” value is on record as 17.3%. In the case of `CCn1c(SCc2ccc(C)cc2)nnc1-c1cnccn1`, the “hERG current change (%, negative = inhibition) at 1uM” value is recorded as -0.29%.

Turning to `O=C(O)CSc1nnc(Cn2nnc3ccccc32)n1CCc1ccccc1`, the “hERG current change (%, negative = inhibition) at 1uM” value stood at 17.1%. Take `CCCCC(=O)Nc1ccc(N2CCN(C(=O)c3ccco3)CC2)cc1`: the “hERG current change (%, negative = inhibition) at 1uM” value was -3.26%.

Consider `CCOCC(=O)Nc1cc(C(=O)OC)ccc1C(=O)OC`, for which the “hERG current change (%, negative = inhibition) at 1uM” value amounted to 8.88%. The figure for `CC1CCCC(C)N1C(=O)CN1C(=O)C(C)(C)Oc2ccc(C(=O)NC3CCCC3)cc21` (stereo not shown) is -2.17%; for `COCCN(C(=O)COC(=O)CCC(=O)c1cccs1)c1c(N)n(Cc2ccccc2)c(=O)[nH]c1=O` it is 9.85%; for `Cc1cccc(N(CC(=O)N2CCCC2)S(=O)(=O)c2ccccc2)c1C` it is 1.76%. In the case of `CCOC(=O)c1c(C)n(CC)c2ccc(OC(=O)c3ccc([N+](=O)[O-])cc3)cc12`, the “hERG current change (%, negative = inhibition) at 1uM” value turned out to be 8.35%. The figure for `OC(CNCc1ccccc1F)(c1ccc(F)cc1)c1ccc(F)cc1` is -1.96%; for `O=C(c1ccc(Cl)cc1)C1CCCN(Cc2cccc3cccnc23)C1` (stereo not shown) it is -43.8%. Then `COc1ccc2ccccc2c1CNC(C)CCc1ccccc1.O=C(O)C(=O)O` (stereo not shown), with -36%; and `Cc1nc(CCNS(=O)(=O)c2cccs2)cs1`, with 0.69%.

For `CCCCNC(=O)OCC(CC)NC(=O)OC(C)C` (stereo not shown), the “hERG current change (%, negative = inhibition) at 1uM” value was 16.7%. Then `C[C@H]1[C@H](OC(=O)CCC(=O)NCc2ccc(C(=O)O)cc2)O[C@@H]2O[C@@]3(C)CC[C@H]4[C@H](C)CC[C@@H]1C24OO3`, with -10.5%. For `N#CC(C#N)=Cc1ccc(OC(=O)c2ccccn2)cc1`, the “hERG current change (%, negative = inhibition) at 1uM” value worked out at 5.8%. As for `O=C(COc1cccc2cccnc12)N/N=C/c1ccccc1O`, the “hERG current change (%, negative = inhibition) at 1uM” value is recorded as 6.63%.

For the compound `Nc1nnc(SCCOc2ccccc2)s1`, the “hERG current change (%, negative = inhibition) at 1uM” value worked out at 0.271%. Then `CN1CCN(S(=O)(=O)c2ccc(N(C)Cc3ccc(C(F)(F)F)cc3)c([N+](=O)[O-])c2)CC1`, with 13.1%; and `CCN1CCN(C(=O)C23CCC(C)(C(=O)C2Br)C3(C)C)CC1` (stereo not shown), with -0.0512%.

`COc1ccc(NC(=O)CSc2nnc(N)s2)cc1`: the “hERG current change (%, negative = inhibition) at 1uM” value is 18.7%. Take `COc1ccc(C2CC(=O)c3cnc(NC(=O)c4ccccc4OC)nc3C2)c(OC)c1` (stereo not shown): the “hERG current change (%, negative = inhibition) at 1uM” value was determined as 14.5%. As to `C/C(=N\NC(=O)c1ccncc1)c1c(O)[nH]c(=O)[nH]c1=O`, the “hERG current change (%, negative = inhibition) at 1uM” value is reported as 0.43%. On to `Cc1cccc(NS(=O)(=O)c2cccc(C(=O)Nc3cccc(C(=O)O)c3)c2)c1`, for which the “hERG current change (%, negative = inhibition) at 1uM” value was 10.6%. For the compound `O=C(c1nc2ccccn2c1CN1CCCC(O)C1)N1CCN(C2CCCCC2)CC1` (stereo not shown), the “hERG current change (%, negative = inhibition) at 1uM” value stood at 5.78%. As for `Cc1noc(C)c1CSCC(=O)OCC(=O)N1CC(=O)Nc2ccccc21`, the “hERG current change (%, negative = inhibition) at 1uM” value is -10.9%.

As to `CN(C(=O)CN1CCN(c2cnn(-c3ccccc3)c(=O)c2Cl)CC1)C1CCS(=O)(=O)C1` (stereo not shown), the “hERG current change (%, negative = inhibition) at 1uM” value was 6.02%.

On to `CC(C)(C)c1ccc(-c2nc(N)nc(N)n2)cc1`, for which the “hERG current change (%, negative = inhibition) at 1uM” value is on record as 15.3%.

As for `CCCCn1c(CN2C(=O)c3ccccc3C2=O)nc2ccccc2c1=O`, the “hERG current change (%, negative = inhibition) at 1uM” value was determined as 6.34%. Regarding `CC(=O)N1c2ccc(S(=O)(=O)NCCC(=O)NCc3ccc(F)cc3)cc2CC1C` (stereo not shown), the “hERG current change (%, negative = inhibition) at 1uM” value was 15.7%.

As to `CCCN(C(=O)c1cccs1)c1c(N)n(Cc2ccccc2)c(=O)[nH]c1=O`, the “hERG current change (%, negative = inhibition) at 1uM” value is -4.34%. `N#C/C(=C\c1ccc(-c2ccccc2C(=O)O)o1)c1nc2ccccc2[nH]1`: the “hERG current change (%, negative = inhibition) at 1uM” value worked out at 11%.

As to `N#C/C(=C\c1ccc(OCc2ccc(Cl)cc2)cc1)C(=O)Nc1cccc(C(=O)O)c1`, the “hERG current change (%, negative = inhibition) at 1uM” value is recorded as 14.3%. In the case of `O=C(Nc1ccc(OCC(=O)N2CCOCC2)cc1)c1cccc(Cl)c1`, the “hERG current change (%, negative = inhibition) at 1uM” value is 6.25%.

`CCOc1ccccc1CN1CCN(Cc2cccc3c2OCO3)CC1CCO` (stereo not shown): the “hERG current change (%, negative = inhibition) at 1uM” value is listed as -2.66%. On to `CCN(CCCNC(=O)C1CCCN(S(=O)(=O)CC)C1)c1cccc(C)c1` (stereo not shown), for which the “hERG current change (%, negative = inhibition) at 1uM” value amounted to 3%.

`COc1ccc(C2C(C(=O)N3CCN(c4ccc(OC)cc4)CC3)c3ccccc3C(=O)N2C)cc1` (stereo not shown): the “hERG current change (%, negative = inhibition) at 1uM” value was found to be 2.07%.

Consider `Cc1ccnc(N2C(=O)CSC2c2ccc(Cl)cc2)c1` (stereo not shown), for which the “hERG current change (%, negative = inhibition) at 1uM” value is 5.33%. `COc1ccc(CCNC(=O)CSc2nc3[nH]ncc3c(=O)n2-c2ccc(Cl)cc2Cl)cc1OC`: the “hERG current change (%, negative = inhibition) at 1uM” value is reported as 18.7%. `Cc1cc(C)c(C)c(/C=C(/C#N)C(N)=S)c1C`: the “hERG current change (%, negative = inhibition) at 1uM” value was determined as 4.11%. Then `Cc1ccc(S(=O)(=O)Oc2ccccc2/C=C2\SC(=O)NC2=O)cc1`, with 17.6%; and `CC(C)(C)c1cc(=O)n2c(C#N)c(C#N)nc2[nH]1`, with 9.45%.

With `CCOc1ccc(NS(=O)(=O)c2ccc3[nH]c(=O)cc(C(=O)O)c3c2)cc1`, the “hERG current change (%, negative = inhibition) at 1uM” value worked out at 14.6%. Consider `CCCCN(C)CCCNC(=O)C1CC(=O)N(Cc2ccc(OC)cc2)C1` (stereo not shown), for which the “hERG current change (%, negative = inhibition) at 1uM” value came to 1.02%.

For the compound `CCOC(=O)c1c(N)sc(C(=O)OCCOC)c1C`, the “hERG current change (%, negative = inhibition) at 1uM” value is on record as 18.6%. The figure for `CN(C)/C=C1\N=C(c2cccs2)OC1=O` is 12%; for `O=C1CC(c2ccc(Cl)cc2)SC(N(c2ccccc2)c2ccccc2)=N1` (stereo not shown) it is -2.81%; for `c1ccc(-c2noc(-c3ccno3)n2)nc1` it is 4.93%. As for `Cl.c1ccc2c(N3CCOCC3)nc(N3CCOCC3)nc2c1`, the “hERG current change (%, negative = inhibition) at 1uM” value is -1.22%. On to `O=c1c2ccccc2nnn1CCO`, for which the “hERG current change (%, negative = inhibition) at 1uM” value is 16.5%.

The record behind these values is paper PMC4336329 (PLoS ONE, 2015).
